{
  "source": "PubChem BioAssay AID248",
  "about": "(DTP/NCI, 2004)",
  "tested_on": "L1210 leukemia ip in BDF1 mice, survival T/C",
  "assay": "NCI In Vivo Anticancer Drug Screen. Data for tumor model L1210 Leukemia (intraperitoneal) in B6D2F1 (BDF1) mice",
  "conditions": "endpoint: mean survival time, higher = longer survival",
  "note": "Toxic doses and inconclusive results are not listed. Certain results were filed several times, with different values. The list is limited to them. The source may hold further records. Results that share an entry differ, and nothing given here explains why; they may come from other doses, times, organisms or constructs than stated.",
  "data": [
    {"smiles": "COc1cc(C=Nc2ccc(-c3csc(-c4ccccc4)n3)c(Cl)c2)ccc1N(CCCl)CCCl", "values": [
      {"measurement": "T/C", "setting": "dose: 30.0 mg/kg/injection, schedule: Q01DX009 (ip), vehicle: carboxymethylcellulose (CMC)", "result": "123 % of control and 156 % of control"}
    ]},
    {"smiles": "CC1(C)CN1P(=O)(N1CC1(C)C)N1CC1(C)C", "note": "(centres undefined)", "values": [
      {"measurement": "T/C", "setting": "dose: 33.0 mg/kg/injection, schedule: Q01DX001 (ip), vehicle: saline", "result": "121 % of control and 151 % of control"},
      {"measurement": "T/C", "setting": "dose: 50.0 mg/kg/injection, schedule: Q01DX001 (ip), vehicle: saline", "result": "123 % of control and 150 % of control"},
      {"measurement": "T/C", "setting": "dose: 75.0 mg/kg/injection, schedule: Q01DX001 (ip), vehicle: saline", "result": "119 % of control and 170 % of control"}
    ]}
  ]
}
